{"source": "the supplement of paper PMC8728848", "experiment_in_all_cases": "glycan array binding signal (z-score within array); higher = stronger binding", "conditions_in_all_cases": "glycan notation: IUPAC condensed, linker removed", "key": {"[1]": {"target": "Gal(b1-4)GlcNAc(b1-3)Gal(b1-4)GlcNAc(b1-3)[Gal(b1-4)GlcNAc(b1-3)Gal(b1-4)GlcNAc(b1-6)]GalNAc", "how_it_was_run": "(§1)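 The binding signal is a Z-score computed within each array. Data were drawn from 3228 arrays in the Consortium for Functional Glycomics database, restricted to those with a known protein sequence. Scores were averaged over arrays of the same protein sequence at different concentrations or buffers, and over linkers, and negative values can be taken as non-binding.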"}, "[2]": {"target": "Gal(b1-4)GlcNAc(b1-3)Gal(b1-4)GlcNAc(b1-6)[Gal(b1-3)]GalNAc", "how_it_was_run": "as §1"}, "[3]": {"target": "Gal(b1-4)GlcNAc(b1-3)Gal(b1-4)[Fuc(a1-3)]GlcNAc(b1-3)Gal(b1-4)[Fuc(a1-3)]GlcNAc", "how_it_was_run": "as §1"}, "[4]": {"target": "Gal(b1-4)GlcNAc(b1-3)GalNAc", "how_it_was_run": "as §1"}, "[5]": {"target": "Gal(b1-4)GlcNAc(b1-3)[Fuc(a1-3)GlcNAc(b1-6)]Gal(b1-4)Glc", "how_it_was_run": "as §1"}, "[6]": {"target": "Gal(b1-4)GlcNAc(b1-3)[Gal(b1-4)GlcNAc(b1-6)]Gal(b1-4)GlcNAc", "how_it_was_run": "as §1"}, "[7]": {"target": "Gal(b1-4)GlcNAc(b1-3)[Gal(b1-4)GlcNAc(b1-6)]GalNAc", "how_it_was_run": "as §1"}, "[8]": {"target": "Gal(b1-4)GlcNAc(b1-3)[GlcNAc(b1-6)]Gal(b1-4)GlcNAc", "how_it_was_run": "as §1"}, "[9]": {"target": "Gal(b1-4)GlcNAc(b1-6)Gal(b1-4)GlcNAc", "how_it_was_run": "as §1"}, "[10]": {"target": "Gal(b1-4)GlcNAc(b1-6)GalNAc", "how_it_was_run": "as §1"}, "[11]": {"target": "Gal(b1-4)GlcNAc(b1-6)[Gal(b1-3)]GalNAc", "how_it_was_run": "as §1"}, "[12]": {"target": "Gal(b1-4)GlcNAc(b1-6)[Gal(b1-3)]GlcNAc", "how_it_was_run": "as §1"}, "[13]": {"target": "Gal(b1-4)GlcNAc(b1-6)[Gal(b1-4)GlcNAc(b1-3)]GalNAc", "how_it_was_run": "as §1"}, "Gal(b1-4)GlcNAc6P": {"target": "Gal(b1-4)GlcNAc6P", "how_it_was_run": "as §1"}, "Gal(b1-6)Gal": {"target": "Gal(b1-6)Gal", "how_it_was_run": "as §1"}, "Gal3S(b1-3)GalNAc": {"target": "Gal3S(b1-3)GalNAc", "how_it_was_run": "as §1"}, "Gal3S(b1-3)GlcNAc": {"target": "Gal3S(b1-3)GlcNAc", "how_it_was_run": "as §1"}, "[14]": {"target": "Gal3S(b1-3)[Fuc(a1-4)]GlcNAc", "how_it_was_run": "as §1"}, "Gal3S(b1-4)Glc": {"target": "Gal3S(b1-4)Glc", "how_it_was_run": "as §1"}, "Gal3S(b1-4)Glc6S": {"target": "Gal3S(b1-4)Glc6S", "how_it_was_run": "as §1"}, "Gal3S(b1-4)GlcNAc": {"target": "Gal3S(b1-4)GlcNAc", "how_it_was_run": "as §1"}, "Gal3S(b1-4)GlcNAc6S": {"target": "Gal3S(b1-4)GlcNAc6S", "how_it_was_run": "as §1"}, "[15]": {"target": "Gal3S(b1-4)[Fuc(a1-3)]Glc6S", "how_it_was_run": "as §1"}, "[16]": {"target": "Gal3S(b1-4)[Fuc(a1-3)]GlcNAc", "how_it_was_run": "as §1"}, "[17]": {"target": "Gal3S(b1-4)[Fuc(a1-3)]GlcNAc6S", "how_it_was_run": "as §1"}, "Gal3S4S(b1-4)GlcNAc": {"target": "Gal3S4S(b1-4)GlcNAc", "how_it_was_run": "as §1"}, "Gal3S6S(b1-4)GlcNAc": {"target": "Gal3S6S(b1-4)GlcNAc", "how_it_was_run": "as §1"}, "Gal3S6S(b1-4)GlcNAc6S": {"target": "Gal3S6S(b1-4)GlcNAc6S", "how_it_was_run": "as §1"}, "Gal4S(b1-4)GlcNAc": {"target": "Gal4S(b1-4)GlcNAc", "how_it_was_run": "as §1"}, "Gal4S6S(b1-4)GlcNAc": {"target": "Gal4S6S(b1-4)GlcNAc", "how_it_was_run": "as §1"}, "Gal6P(b1-4)GlcNAc": {"target": "Gal6P(b1-4)GlcNAc", "how_it_was_run": "as §1"}, "Gal6S(b1-3)GlcNAc": {"target": "Gal6S(b1-3)GlcNAc", "how_it_was_run": "as §1"}, "Gal6S(b1-3)GlcNAc6S": {"target": "Gal6S(b1-3)GlcNAc6S", "how_it_was_run": "as §1"}, "Gal6S(b1-4)Glc": {"target": "Gal6S(b1-4)Glc", "how_it_was_run": "as §1"}, "Gal6S(b1-4)Glc6S": {"target": "Gal6S(b1-4)Glc6S", "how_it_was_run": "as §1"}, "Gal6S(b1-4)GlcNAc": {"target": "Gal6S(b1-4)GlcNAc", "how_it_was_run": "as §1"}, "Gal6S(b1-4)GlcNAc6S": {"target": "Gal6S(b1-4)GlcNAc6S", "how_it_was_run": "as §1"}, "GalNAc(a1-3)Gal": {"target": "GalNAc(a1-3)Gal", "how_it_was_run": "as §1"}}, "note": "Some of the results follow.", "data": [{"binder": "XL-35 (Xenopus laevis) (protein) MLVHILLLLVTGGLSQSCDPVVIVASKNMVKQLDCDKFRNCKEIKDSNEEAQDGIYTLTSPDGISYQTFCDMTTNGGGWTLVASVHENNMAGKCTIGDRWSSQQGNRADYPEGDGNWANYNTFGSAGGATSDDYKNPGYYDIEAYNLGVWHVPNKTPLSVWRNSSLQRYRTTDGILFKHGGNLFSLYRIYPVKYGIGSCSKDSGPTVPVVYDLGSANLTASFYSPGFRSQFTPGYIQFRPINTEKAALALCPGMKMESCNVEHVCIGGGGYFPEADPRQCGDFAAYDFNGYGTKKFNSAGIEITEAAVLLFYL", "values": [{"measurement": "glycan array binding signal (z-score)", "setting": "[1]", "value": -0.094}, {"measurement": "glycan array binding signal (z-score)", "setting": "[2]", "value": -0.02}, {"measurement": "glycan array binding signal (z-score)", "setting": "[3]", "value": -0.254}, {"measurement": "glycan array binding signal (z-score)", "setting": "[4]", "value": -0.345}, {"measurement": "glycan array binding signal (z-score)", "setting": "[5]", "value": -0.26}, {"measurement": "glycan array binding signal (z-score)", "setting": "[6]", "value": -0.081}, {"measurement": "glycan array binding signal (z-score)", "setting": "[7]", "value": -0.099}, {"measurement": "glycan array binding signal (z-score)", "setting": "[8]", "value": -0.228}, {"measurement": "glycan array binding signal (z-score)", "setting": "[9]", "value": -0.354}, {"measurement": "glycan array binding signal (z-score)", "setting": "[10]", "value": -0.097}, {"measurement": "glycan array binding signal (z-score)", "setting": "[11]", "value": -0.038}, {"measurement": "glycan array binding signal (z-score)", "setting": "[12]", "value": -0.106}, {"measurement": "glycan array binding signal (z-score)", "setting": "[13]", "value": -0.332}, {"measurement": "glycan array binding signal (z-score)", "setting": "Gal(b1-4)GlcNAc6P", "value": -0.273}, {"measurement": "glycan array binding signal (z-score)", "setting": "Gal(b1-6)Gal", "value": -0.238}, {"measurement": "glycan array binding signal (z-score)", "setting": "Gal3S(b1-3)GalNAc", "value": 0.278}, {"measurement": "glycan array binding signal (z-score)", "setting": "Gal3S(b1-3)GlcNAc", "value": 0.168}, {"measurement": "glycan array binding signal (z-score)", "setting": "[14]", "value": -0.223}, {"measurement": "glycan array binding signal (z-score)", "setting": "Gal3S(b1-4)Glc", "value": -0.135}, {"measurement": "glycan array binding signal (z-score)", "setting": "Gal3S(b1-4)Glc6S", "value": -0.076}, {"measurement": "glycan array binding signal (z-score)", "setting": "Gal3S(b1-4)GlcNAc", "value": 0.028}, {"measurement": "glycan array binding signal (z-score)", "setting": "Gal3S(b1-4)GlcNAc6S", "value": 0.036}, {"measurement": "glycan array binding signal (z-score)", "setting": "[15]", "value": 0.818}, {"measurement": "glycan array binding signal (z-score)", "setting": "[16]", "value": 0.601}, {"measurement": "glycan array binding signal (z-score)", "setting": "[17]", "value": 0.007}, {"measurement": "glycan array binding signal (z-score)", "setting": "Gal3S4S(b1-4)GlcNAc", "value": -0.29}, {"measurement": "glycan array binding signal (z-score)", "setting": "Gal3S6S(b1-4)GlcNAc", "value": 0.114}, {"measurement": "glycan array binding signal (z-score)", "setting": "Gal3S6S(b1-4)GlcNAc6S", "value": 0.043}, {"measurement": "glycan array binding signal (z-score)", "setting": "Gal4S(b1-4)GlcNAc", "value": -0.18}, {"measurement": "glycan array binding signal (z-score)", "setting": "Gal4S6S(b1-4)GlcNAc", "value": -0.282}, {"measurement": "glycan array binding signal (z-score)", "setting": "Gal6P(b1-4)GlcNAc", "value": -0.519}, {"measurement": "glycan array binding signal (z-score)", "setting": "Gal6S(b1-3)GlcNAc", "value": 0.247}, {"measurement": "glycan array binding signal (z-score)", "setting": "Gal6S(b1-3)GlcNAc6S", "value": -0.125}, {"measurement": "glycan array binding signal (z-score)", "setting": "Gal6S(b1-4)Glc", "value": 0.179}, {"measurement": "glycan array binding signal (z-score)", "setting": "Gal6S(b1-4)Glc6S", "value": -0.025}, {"measurement": "glycan array binding signal (z-score)", "setting": "Gal6S(b1-4)GlcNAc", "value": 0.043}, {"measurement": "glycan array binding signal (z-score)", "setting": "Gal6S(b1-4)GlcNAc6S", "value": 0.18}, {"measurement": "glycan array binding signal (z-score)", "setting": "GalNAc(a1-3)Gal", "value": 0.045}]}]}
